The whole screen tested about 310,000 compounds, of which about 14,000 (4.5%) showed an effect of 50% or more. Effects have a minus sign here. Some of the results follow.
biological target: human ether-à-go-go-related gene (hERG) potassium channel (human, UniProt Q12809); assay: primary screen, population patch clamp on CHO cells stably expressing hERG
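Further: peak tail current of the secondary pulse compared with the same well before compound.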

human ether-à-go-go-related gene (hERG) potassium channel, sequence (Q12809 whole entry, looked up): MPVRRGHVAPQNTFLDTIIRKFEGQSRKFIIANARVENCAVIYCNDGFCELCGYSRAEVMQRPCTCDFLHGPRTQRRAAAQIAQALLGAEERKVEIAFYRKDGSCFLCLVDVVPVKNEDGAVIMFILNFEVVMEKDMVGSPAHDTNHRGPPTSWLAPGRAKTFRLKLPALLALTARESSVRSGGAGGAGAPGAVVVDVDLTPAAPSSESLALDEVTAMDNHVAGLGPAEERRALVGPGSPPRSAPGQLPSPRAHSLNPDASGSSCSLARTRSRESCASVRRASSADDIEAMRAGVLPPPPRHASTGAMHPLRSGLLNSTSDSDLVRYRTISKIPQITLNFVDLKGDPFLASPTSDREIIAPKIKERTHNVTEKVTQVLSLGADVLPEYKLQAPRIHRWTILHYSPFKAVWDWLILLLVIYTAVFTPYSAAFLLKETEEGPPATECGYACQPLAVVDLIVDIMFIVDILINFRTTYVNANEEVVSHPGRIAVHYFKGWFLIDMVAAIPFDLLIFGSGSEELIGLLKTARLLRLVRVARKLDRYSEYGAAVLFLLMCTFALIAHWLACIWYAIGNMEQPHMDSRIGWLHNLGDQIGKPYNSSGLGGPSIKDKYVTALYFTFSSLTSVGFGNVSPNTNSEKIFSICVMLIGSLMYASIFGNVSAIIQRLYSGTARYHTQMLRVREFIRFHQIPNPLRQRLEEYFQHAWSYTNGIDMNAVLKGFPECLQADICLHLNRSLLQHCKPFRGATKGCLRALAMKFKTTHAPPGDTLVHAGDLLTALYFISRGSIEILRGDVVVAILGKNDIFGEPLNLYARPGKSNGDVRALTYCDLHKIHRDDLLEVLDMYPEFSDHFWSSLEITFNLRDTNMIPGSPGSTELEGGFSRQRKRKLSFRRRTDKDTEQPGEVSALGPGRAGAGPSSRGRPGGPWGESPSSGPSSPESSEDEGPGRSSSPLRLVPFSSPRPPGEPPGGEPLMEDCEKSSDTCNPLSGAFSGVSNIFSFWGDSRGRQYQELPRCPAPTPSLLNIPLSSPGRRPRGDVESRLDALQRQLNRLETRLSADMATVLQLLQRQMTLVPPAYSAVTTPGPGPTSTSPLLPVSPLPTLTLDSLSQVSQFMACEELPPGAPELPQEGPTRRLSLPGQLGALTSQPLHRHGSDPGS

Compound | hERG current change (%, negative = inhibition) at 10uM [%]
NS(=O)(=O)c1ccc(NC(=O)COC(=O)Cc2ccc(Cl)cc2)cc1 | -0.0141
COc1ccc(CCn2nnnc2C(C(C)C)N2CCN(c3ncccn3)CC2)cc1OC (stereo not drawn) | -5.93
CCOC(=O)N1CCC(NCc2c(C(=O)N(C)Cc3ccccc3)nc3ccccn23)CC1 | -43.3
CCOc1ccccc1N(C)C(=O)Cn1ncc2c([nH]c3ccccc32)c1=O | -2.61
CN(CC(=O)Nc1ccccc1Br)C(=O)c1cccc(S(=O)(=O)NCc2ccccc2)c1 | -17.6
CN(C)c1ccc(CNc2ncn[nH]2)cc1 | 17.7
CCN=C(NCC)SC1CC(=O)N(c2ccccc2)C1=O (stereo not drawn) | -3.64
COc1ccc(CNC(=O)N2CCN(c3cccc(Cl)c3)CC2)cc1OC | -18.5
COc1ccc(C(C)=O)cc1COC(=O)CCNS(=O)(=O)c1ccc(C(C)=O)cc1 | -45.9
Cc1ccn2cc(C(=O)Nc3ccc4c(c3)OCCO4)nc2c1 | -8.61
N#Cc1c(-c2ccc(F)cc2)cc(-c2cccs2)nc1SCC(=O)O | 24.9
COc1ccc(-c2n[nH]c(=S)n2N)c(OC)c1 | 20.8
Cc1cccc(NC(=O)Cn2nnc(C(=O)NCc3ccco3)c2N)c1 | 5.37
COc1ccc2c(c1)OC[C@H]1[C@H]2N2C(=O)CN(CC3CCCO3)C(=O)[C@@]2(C)[C@H]1c1ccccc1 (stereo partly drawn) | -1.62
Cc1cc(C)c(/C=N/NC(N)=O)c(C)c1/C=N/NC(N)=O | -11
CN1CCN(C(=O)c2cc([N+](=O)[O-])ccc2Cl)CC1 | 16.8
COC(=O)c1ccc2c(=O)n(CCCCCC(=O)N3CCN(c4ccc(F)cc4)CC3)c(=O)[nH]c2c1 | 13
CCN(CC)C(=O)CSc1nc2cc3c(cc2c(=O)n1Cc1ccco1)OCO3 | -30.9
OCCNc1nc2ccccc2[nH]1 | 12.8
O=C(O)CNC(=O)C1COc2ccccc2O1 (stereo not drawn) | 21.7
CCOc1ncccc1C(=O)N(C)CC(=O)Nc1ccccc1SC | 33
CCOCc1c(C(=O)OCC(=O)Nc2ccc(C)c(S(=O)(=O)N(C)C)c2)oc2ccccc12 | -5.71
Cc1[nH]n(-c2ccccc2)c(=O)c1C(c1ccc(O)c([N+](=O)[O-])c1)c1c(C)[nH]n(-c2ccccc2)c1=O | 9.91

Compound | hERG current change (%, negative = inhibition) at 10uM [%]
O=C(COC(=O)c1ccc(F)cc1F)NCCNC(=O)COC(=O)c1ccc(F)cc1F | 16.8
ClCc1csc(N/N=C/c2cccs2)n1 | 11.8
O=[N+]([O-])c1ccc(C[n+]2ccccc2)cc1.[Br-] | -6.43
CCN(c1ccccc1)S(=O)(=O)c1nnc(NC(=O)C(C)C)s1 | 20.3
O=C(O)c1cccc(NC(=O)c2ccccc2NC(=O)c2cccc([N+](=O)[O-])c2)c1 | 19.2
COc1ccc(NCc2ccc(OC)c(Cn3ccnc3)c2)c(OC)c1 | -10.9
Nc1cc[n+](CC(=O)c2ccc3c(c2)OCCO3)cc1.[Br-] | -0.154
COc1cc2c(cc1NC(=O)COC(=O)C(CCSC)NC(=O)c1ccccc1Cl)oc1ccccc12 (stereo not drawn) | -2.5
Cc1ccn2cc(-c3ccc(NS(=O)(=O)c4ccccc4)cc3)nc2c1 | -6.66
CC1Cc2ccccc2N1C(=O)COC(=O)c1ccc(O)cc1 (stereo not drawn) | 15.3
CCn1c(-c2cc3ccccc3cc2O)n[nH]c1=S | 12.5
O=C(COc1ccccc1F)Nc1ccc(S(=O)(=O)N2CCCC2)cc1 | 2.77
Cc1cccc(S(=O)Cc2ccc(C(=O)N3CCOCC3)o2)c1 (stereo not drawn) | 19
CC(C)Cc1ccc(S(=O)(=O)N2CCCC2)cc1 | -23
Cc1cccc(C(=O)NNS(=O)(=O)c2ccc(F)cc2)c1 | 8.24
Cc1cccc(NC(=S)NCCc2c[nH]c3ccccc23)c1 | -4.25
COc1ccccc1NC(=O)Nc1ccccc1N1CCOCC1 | -9.01
CC(Oc1ccc(Br)cc1)C(=O)NCc1ccccn1 (stereo not drawn) | 12.6
COc1cccc(/C=N/Nc2c(Cl)cncc2Cl)c1O | 7.09
Cc1cc(-c2ccccc2)nc2[n+]1CCN2C.[Br-] | 1.36
O=C1Nc2ccccc2C1Cc1ccc(OC(F)(F)F)cc1 (stereo not drawn) | 15.7
C=CCn1c(CCC(O)COCCCCC)n[nH]c1=S (stereo not drawn) | 5.32
FC(F)(Cl)c1nnc2ccc(Sc3ccccn3)nn12 | 11.1

Compound | hERG current change (%, negative = inhibition) at 10uM [%]
COc1ccc2c(c1)CC1c3c(cc4c(c3-2)OCO4)CC[N+]1(C)[O-] (stereo not drawn) | -19.2
CC1(C)C2CCC1(C)C(OCCNCCOC(=O)Nc1ccccc1)C2 (stereo not drawn) | -27.5
CSCCC(NC(=O)c1ccco1)C(=O)N1CCCCCCC1 (stereo not drawn) | -4.39
COc1ccc(NC(=O)NNC(=O)c2cc3occc3n2C)c(OC)c1 | 3.05
Cc1cc(/C=C(\C#N)C(=O)NCCc2c[nH]c3ccccc23)c(C)n1C | 3.85
COc1ccc(N(CC(=O)NC2CCCCCCC2)S(=O)(=O)c2c(C)nn(C)c2C)cc1 | -19.8
Cc1ccsc1C(=O)OCC(=O)c1cc2ccccc2o1 | 2.77
O=C(NCC1CCCO1)c1c(O)c2cccc3c2n(c1=O)CC3 (stereo not drawn) | 10.4
COC(=O)C1C(=O)CC(C)(O)C(C(=O)OC)C1/C=C/c1ccccc1 (stereo not drawn) | -15.6
O=C1/C(=C/c2cccs2)COc2ccccc21 | -3.96
CCCN1CCN(C(=O)c2ccc(Sc3ccc(C)cc3)c(NC(C)=O)c2)CC1 | -50.6
Nc1c(NCCN2CCCCC2)c2ccccc2oc1=O | -1.41
CC(=O)Nc1ccc(NC(=O)/C=C/c2ccc3c(c2)OCO3)cc1 | 13
CCCCN(C)C(=O)CCC(=O)Nc1ccc2nc(N3CCOCC3)cc(C)c2c1 | -19.2
COC(=O)c1ccc(-n2c(C)cc(/C=N/Nc3nc(C)cc(=O)[nH]3)c2C)cc1 | 4.79
CC(=Nc1ccc2c(c1)nc(CO)n2C)C1=C(O)CC(C)(C)CC1=O | 2.09
CN1CCN(CC(O)COC(c2ccccc2)c2ccccc2)CC1 (stereo not drawn) | 11.2
O=C(CNc1ccc2ccccc2c1)N/N=C/c1ccc(C(=O)O)cc1 | -0.523
CC12CN3CC(C)(CN(C1)C3c1ccccc1F)C2 (stereo not drawn) | 3.57
CCOC(=O)/C(C#N)=C/c1cn(CCC(=O)O)nc1-c1cccc(Br)c1 | -2.28
CC(=O)NCC(=O)OCc1ccc([N+](=O)[O-])cc1 | 3.26
COc1ccc(Cn2cc(F)c(=O)n(CCC(C)C)c2=O)cc1[N+](=O)[O-] | -40
COc1ccc(OCc2cc(C(=O)NCC3CCCCO3)no2)c(Cl)c1 (stereo not drawn) | -18.6

Compound | hERG current change (%, negative = inhibition) at 10uM [%]
Cn1c(SCC(=O)NNC(=O)c2ccccc2O)nnc1-c1ccccc1 | 18
O=C(Nc1cccc(OC(=O)N2CCCCC2)c1)N1CCCCC1 | -1.5
CCC(C)(c1nnnn1-c1c(C)cccc1C)N(N=O)c1cccc(C(F)(F)F)c1 (stereo not drawn) | -5.59
CC1(c2ccc(OC(F)F)cc2)NC(=O)N(CC(=O)N2c3ccccc3NC(=O)C2(C)C)C1=O (stereo not drawn) | -6.78
COC(=O)c1cc(-c2ccc(Cl)cc2Cl)n[nH]1 | 14.1
CCC(CC)=C(C#N)C(=O)NC1CCCCC1 | 15.5
CCOc1ccc(S(=O)(=O)Nc2c(C)n(C)n(-c3ccccc3)c2=O)cc1 | 7.86
CN(C)S(=O)(=O)c1cccc(NC(=S)N/N=C/c2ccco2)c1 | -32.1
O=C(Nc1ccccc1)Nc1ccc(-n2ccc(C(F)(F)F)n2)cc1 | 3.19
Cc1ccc(OCCn2cnc3ccccc3c2=O)c([N+](=O)[O-])c1.O=C(O)C(=O)O | 7.63
COc1ccc(C(=O)CSc2nnc(COc3ccc(C#N)cc3)n2-c2ccccc2)cc1 | -6.34
C=CCNC(=O)CSCc1ccc(Br)cc1 | 6.17
CCS(=O)(=O)Nc1ccc(NC(C)=O)cc1 | -34
COc1ccc(/C=N/NC(=O)CCC(=O)Nc2ccc(Br)cc2)c(OC)c1 | 5.6
NC(=O)c1cnn2c(-c3ccc(Cl)cc3Cl)ccnc12 | 13.3
C#CCn1c(-c2ccccc2)ccc(C#N)c1=O | 15.9
CCc1nnc(NC(=O)Nc2ccccc2OC)s1 | 8.57
CCCC(=O)N1CCCC(c2nc(-c3cccc(OC)c3)no2)C1 (stereo not drawn) | 22.9
Cc1ccc(C)c(-n2c(C)cc(/C=N/NC(=O)c3c(C)nc4cc(C)ccn34)c2C)c1 | -0.122
COc1cccc(OC)c1C(=O)OCC(=O)NC(=O)NCc1ccccc1 | -18.5
CN1CCN(S(=O)(=O)c2ccc(N)cc2)CC1 | -4.87
